The experiment has as its system Plasmodium falciparum NF54 stage V gametocytes. Nature of the experiment: viability index relative to DMSO control (fraction); higher = less gametocyte killing. The conditions noted are these: 2.5 µM, incubation time: 72 h. In a few lines:
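Compound at 2.5 µM was incubated for 72 hr at 37°C under low oxygen with P. falciparum NF54 stage V gametocytes (0.75% gametocytemia, 1.25% hematocrit, 10 µl, serum-free screening medium) in 1,536-well plates. Staining used 3 µl of 2.5 µM MitoTracker Red CMXRos plus 0.13% saponin for one to two hours, and red particles of 20–70 µm2 were counted in one imaged field per well. Each viability index is that count relative to the plate mean of solvent-only wells.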

Where [1] appears, read: library set: Broad Institute DOS.

± gives the uncertainty stated by the source. Whole data set: some 9,900 compounds, median “viability index relative to DMSO control” near 1, cut for the lowest 2% near 0.85. The list shows a part of the results.

`O=C(C1CCC1)N1CCCCN2[C@H](CO)[C@H](c3ccc(-c4ccncc4)cc3)[C@@H]2C1` returned a viability index under setting [1] of 0.993 ± 0.016.

Regarding `C[C@H](CO)N1C[C@H](C)[C@@H](CN(C)C(=O)Nc2ccc(-c3cccs3)cc2)OCc2cnnn2CCCC1=O`, under setting [1], the viability index worked out at 1.11 ± 0.076.

Under setting [1], `CCN(C[C@@H]1N[C@@H](CO)[C@@H]1c1ccccc1)C(=O)c1ccncc1` had a viability index of 0.999 ± 0.096.

Consider `C/C=C/c1ccc([C@H]2[C@H]3CN(Cc4ccc(F)cc4)CC(=O)N3[C@H]2CO)cc1`, for which, under setting [1], the viability index amounted to 1.1 ± 0.074.

As to `O=C(C[C@@H]1C[C@@H]2c3cc(NS(=O)(=O)c4ccc(F)cc4)ccc3O[C@@H]2[C@@H](CO)O1)N1CCc2ccccc2C1`, the viability index under setting [1] was 0.963 ± 0.039.

Turning to `COc1ccc(NC(=O)N2C[C@@H](O)COC[C@@H]3O[C@H](CC(=O)N4CCCCC4)CC[C@H]32)cc1`, the viability index under setting [1] is 1.03 ± 0.012.

Under setting [1], `CCC(=O)N1[C@H](CO)[C@@H](c2ccccc2)[C@@H]1CN(CC)C(=O)c1cccc(F)c1` gave a viability index of 1.08 ± 0.089.

Regarding `COc1ccc(C#Cc2ccc([C@@H]3[C@H](CO)N4CCCCN(C)C[C@@H]34)cc2)cc1`, the viability index under setting [1] was 1.04 ± 0.11.

Under setting [1], `CCCC(=O)N1C[C@]2(CCN(CC2)S(=O)(=O)CC)c2c([C@H]1CO)n(C)c1cc(OC)ccc21` displayed a viability index of 1.02 ± 0.072.

`COCC(=O)N1[C@H](CO)[C@H](c2ccccc2-c2ccccc2F)[C@@H]1C#N`: the viability index under setting [1] stood at 1.09 ± 0.058.

For the compound `O=S(=O)(c1ccc(F)cc1)N1CCCCN2[C@H](CO)[C@@H](c3ccc(-c4cncnc4)cc3)[C@H]2C1`, under setting [1], the viability index is 1.035 ± 0.002.

As for `N#Cc1cccc(-c2ccc3c(c2)[C@@H]2[C@@H](CCN2C(=O)CN2CCOCC2)[C@H](CO)N3)c1`, the viability index under setting [1] was found to be 1.02 ± 0.02.

Under setting [1], `O=C(Nc1ccc(F)cc1)N1[C@@H]2CNc3ccccc3[C@@H]2[C@@H]1CO` had a viability index of 1.04 ± 0.066.

As to `CCCN1[C@@H]2Cn3c(ccc(-c4ccccc4)c3=O)[C@H]1[C@@H](C(=O)NCC)[C@@H]2CO`, under setting [1], the viability index amounted to 0.99 ± 0.039.

In the case of `CN1C(=O)c2cc(NC(=O)Nc3ccccc3F)ccc2OC[C@@H]2O[C@@H](CC(=O)NCCc3ccncc3)CC[C@@H]21`, under setting [1], the viability index was found to be 0.899 ± 0.052.

Take `CN(C)C(=O)c1ccc(-c2ccc3c(c2)[C@H]2[C@H](CCN2C(=O)C2CCCC2)[C@H](CO)N3C)cc1`: the viability index under setting [1] came to 1.001 ± 0.0075.

Regarding `CN1C[C@@H]2[C@H](c3ccccc31)[C@H](CO)N2S(=O)(=O)c1ccccc1`, under setting [1], the viability index stood at 1.01 ± 0.029.

`C[C@H](CO)N1C[C@H](C)[C@@H](CN(C)C(=O)Nc2ccc(F)cc2)OCc2ccccc2-c2c(n(C)c3ccccc23)C1=O`: where the note is “library set: Broad Institute Blood Stage”, the viability index stood at 0.904 ± 0.059.

As to `C/C=C/c1ccc([C@H]2[C@H]3CNC[C@@H]2N3Cc2cccc(C(F)(F)F)c2)cc1`, the viability index under setting [1] was 1.05 ± 0.021.

`C[C@@H]1CN([C@@H](C)CO)C(=O)Cc2cc(NC(=O)Nc3ccc(F)cc3)ccc2O[C@@H]1CN(C)S(C)(=O)=O` gave a viability index under setting [1] of 1.115 ± 0.01.

`O=C(Nc1cc(F)ccc1F)N[C@@H]1CC[C@H](CC(=O)N2CCc3ccccc3C2)O[C@H]1CO` displayed a viability index under setting [1] of 1.03 ± 0.049.

On to `CC(=O)N1[C@H](CNC(=O)C2CC2)[C@H](c2ccc(-c3ccccc3)cc2)[C@@H]1CO`, for which the viability index under setting [1] was found to be 1.05 ± 0.057.

Regarding `CN1C(=O)c2cc(NC(=O)c3cnccn3)ccc2OC[C@@H]2O[C@@H](CC(=O)N[C@H]3CCN(Cc4ccccc4)C3)CC[C@H]21`, the viability index under setting [1] stood at 1.02 ± 0.054.

Regarding `CCc1nc(N2[C@H](CO)[C@@H](c3ccccc3-c3ccc(F)cc3)[C@@H]2C#N)sc1C`, under setting [1], the viability index amounted to 1.02 ± 0.054.

`O=C1NCCOCn2nncc2CC[C@H]1Cc1cccc(Cl)c1`: under setting [1], the viability index amounted to 0.968 ± 0.045.

Under setting [1], `CC(C)N(C[C@H]1N[C@H](CO)[C@H]1c1ccccc1)S(=O)(=O)c1ccccc1` gave a viability index of 1.01 ± 0.028.

With `O=S(=O)(c1ccc(F)cc1)N1CCCCN2[C@H](CO)[C@H](c3ccc(-c4cncnc4)cc3)[C@H]2C1`, under setting [1], the viability index came to 1.01 ± 0.063.

With `CN1CCN(C(=O)C[C@H]2CC[C@H]3[C@@H](COC[C@@H](O)CN3C(=O)c3ccccc3F)O2)CC1`, the viability index under setting [1] was found to be 1.07 ± 0.019.

As to `O=C(NC1CCCC1)[C@H]1[C@H](CO)[C@H]2Cn3c(ccc(C4=CCCCC4)c3=O)[C@@H]1N2CC1CC1`, under setting [1], the viability index was 1.09 ± 0.049.

In turn, `Cc1noc(C)c1NC(=O)N[C@@H]1C=C[C@@H](CC(=O)Nc2ccc(-c3ccccc3)cc2)O[C@H]1CO` registered a viability index under setting [1] of 1.022 ± 0.0097.

`O=C([C@@H]1[C@@H](CO)[C@@H]2Cn3c(ccc(C4=CCCC4)c3=O)[C@H]1N2C(=O)c1cccnc1)N1CCOCC1`: the viability index under setting [1] is 1.08 ± 0.038.

`CCCNC(=O)N1[C@H](CO)[C@H](c2ccc(C#Cc3cccc(F)c3)cc2)[C@@H]1C#N` showed a viability index under setting [1] of 1.09 ± 0.027.

For the compound `COc1ccc(S(=O)(=O)N(C)C[C@@H]2Oc3c(cccc3N(C)C)C(=O)N([C@@H](C)CO)C[C@H]2C)cc1`, the viability index under setting [1] came out at 0.967 ± 0.058.

For the compound `O=C(Nc1ccccc1F)N1CCCCN2[C@@H](CO)[C@@H](c3ccc(/C=C/c4ccccc4)cc3)[C@@H]2C1`, the viability index under setting [1] worked out at 0.8892 ± 0.0057.

`CN(C)C(=O)c1cccc(-c2ccc([C@H]3[C@H](CO)N4CCCCN(CC5CCOCC5)C[C@@H]34)cc2)c1` displayed a viability index under setting [1] of 0.971 ± 0.12.

With `Cc1ccccc1-c1ccc([C@@H]2[C@H]3CNC[C@@H]2N3C(=O)Nc2ccc(F)cc2)cc1`, the viability index under setting [1] was determined as 0.9735 ± 0.0069.

As to `CCCC(=O)Nc1ccc2c(c1)OC[C@H](C)NC[C@H](C)[C@@H](OC)CN(C)C2=O`, the viability index under setting [1] was 1.09 ± 0.04.

`CCS(=O)(=O)Nc1ccc2c(c1)C(=O)N(C)C[C@H](OC)[C@H](C)CN(C(=O)c1ccc3c(c1)OCO3)[C@@H](C)CO2` returned a viability index under setting [1] of 1.06 ± 0.024.

As to `CO[C@@H]1CC[C@H]2CCN(C)C(=O)CCCN(C)C(=O)c3cc(C#N)ccc3OC[C@H]1O2`, the viability index under setting [1] came to 1.04 ± 0.072.

Under setting [1], `O=C(C[C@H]1CC[C@@H]2[C@H](COC[C@H](O)CN2C(=O)Nc2cccc(F)c2)O1)NCCCN1CCOCC1` came in with a viability index of 1.04 ± 0.015.

Under setting [1], `O=C(C[C@@H]1CC[C@@H]2NC[C@@H](O)COC[C@H]2O1)NCCN1CCCCC1` gave a viability index of 0.995 ± 0.088.

`CN(C)C(=O)C[C@@H]1CC[C@H]2[C@@H](COC[C@@H](O)CN2S(=O)(=O)c2ccccc2Cl)O1` showed a viability index under setting [1] of 1.06 ± 0.063.

Under setting [1], `CN(C)CC(=O)N1CC2(C1)[C@@H](c1ccccc1)[C@H](CO)N2C(=O)C1CC1` registered a viability index of 1 ± 0.051.

In turn, `CN(C)Cc1cn(CC[C@@H]2CC[C@H](NC(=O)Cc3cccnc3)[C@@H](CO)O2)nn1` showed a viability index under setting [1] of 1.09 ± 0.096.

`O=C(NC1CCCC1)N1CCCCN2[C@H](C1)[C@H](c1ccc(-c3cccnc3)cc1)[C@@H]2CO` displayed a viability index under setting [1] of 1.08 ± 0.012.

For `O=C(CC(F)(F)F)N1C[C@H]2[C@@H](c3ccccc31)[C@H](CO)N2C(=O)C1CCCCC1`, the viability index under setting [1] came out at 1.01 ± 0.13.

The compound `COC(=O)C[C@H]1CC[C@@H](N)[C@@H](CO)O1` showed a viability index under setting [1] of 0.992 ± 0.036.

Turning to `O=C(C[C@@H]1CC[C@@H](NC(=O)c2ccc(F)cc2)[C@H](CO)O1)NCCc1ccccc1`, under setting [1], the viability index was found to be 1.17 ± 0.061.
